Laboratory results from PubChem BioAssay AID488969 (Vanderbilt High Throughput Screening Facility, 2010).
Whole data set: some 110,000 compounds, median “z-score” near -0.1, cut for the highest 2% near 2. Some of the results follow.

The compounds below were run against Metabotropic glutamate receptor 8 (Rattus norvegicus) (UniProt P70579) (assay: mGluR8 Gi/Go-coupled signaling modulation – cell-based, rat, thallium flux, HTS, primary screen (AID 488969)). Conditions: HEK293 rat mGluR8, GIRK (G protein-gated inwardly rectifying potassium channel) thallium flux, FluoZin2; at 10 µM; stronger effect = higher value; submaximal glutamate (EC20) added with thallium.
Chain of UniProt P70579 (P70579 whole entry, looked up): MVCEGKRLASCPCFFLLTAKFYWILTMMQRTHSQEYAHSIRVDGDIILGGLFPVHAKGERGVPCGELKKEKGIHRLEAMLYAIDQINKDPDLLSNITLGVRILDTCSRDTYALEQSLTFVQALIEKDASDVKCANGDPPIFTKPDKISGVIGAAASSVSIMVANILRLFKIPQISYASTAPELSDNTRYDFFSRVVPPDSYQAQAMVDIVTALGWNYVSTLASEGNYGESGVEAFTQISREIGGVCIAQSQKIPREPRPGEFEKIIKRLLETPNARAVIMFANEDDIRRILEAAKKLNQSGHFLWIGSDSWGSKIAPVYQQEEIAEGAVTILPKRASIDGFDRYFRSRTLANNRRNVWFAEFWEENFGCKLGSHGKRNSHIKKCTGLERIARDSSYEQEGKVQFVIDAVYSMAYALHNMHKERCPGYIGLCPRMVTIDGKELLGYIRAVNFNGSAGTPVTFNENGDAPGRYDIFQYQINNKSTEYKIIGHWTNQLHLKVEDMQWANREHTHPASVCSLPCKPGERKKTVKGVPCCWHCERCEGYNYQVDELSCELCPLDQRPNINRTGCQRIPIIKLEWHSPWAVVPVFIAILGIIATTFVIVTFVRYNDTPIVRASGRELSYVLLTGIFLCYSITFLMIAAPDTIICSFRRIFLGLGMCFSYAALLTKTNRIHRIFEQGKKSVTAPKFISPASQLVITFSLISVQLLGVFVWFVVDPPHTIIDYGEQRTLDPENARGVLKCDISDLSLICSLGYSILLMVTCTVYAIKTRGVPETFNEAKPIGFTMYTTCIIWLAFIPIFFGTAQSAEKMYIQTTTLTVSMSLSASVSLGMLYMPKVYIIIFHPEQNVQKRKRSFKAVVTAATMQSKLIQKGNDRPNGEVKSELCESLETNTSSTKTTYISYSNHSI
For O=C(NCC1CCCO1)c1ccc(COc2ccc(F)cc2)o1 (stereo unspecified), the z-score was 0.0407. CCCn1c(/N=C/c2c[nH]c3ccccc23)nc2ccccc21 gave a z-score of 0.568. Compound COc1ccc(C(=O)OCC(=O)Nc2ccc(F)cc2F)cc1OC has a z-score of -0.249. CC(C)(C)c1ccc(S(=O)(=O)N2CCC(c3nc4ccc(Cl)cc4[nH]3)CC2)cc1 gave a z-score of 0.342. For COC(=O)c1c(NC(=O)CN2CCOCC2)sc2c1CCC(C)C2 (stereo unspecified), the z-score was 0.288. In the case of CCOc1ccc(CCNC(=O)CCc2nc(-c3ccc(OC)cc3)no2)cc1OCC, the z-score is reported as -0.515. O=C(CC1NC(=O)NC1=O)NC1(C(=O)NC2CCCCC2)CCCCC1 (stereo unspecified) was tested, and the z-score was 0.351. In the case of C/C(=N/NS(=O)(=O)c1ccc(F)cc1)c1ccc(NC(=O)c2ccc(C)o2)cc1, the z-score is reported as -0.145. CC1Cc2nc(SCC(=O)Nc3nc4ccccc4s3)n(C)c(=O)c2S1 (stereo unspecified) showed a z-score of -2.75. Compound O=C(COc1ccccc1)Nc1cccc2c1CCCC2 has a z-score of -0.151. Work on Fc1ccc(-c2csc(/C=C/c3ccc4c(c3)OCO4)n2)cc1 yielded a z-score of 0.0193. Compound COc1ccccc1/C=N/n1c(N)c(S(=O)(=O)c2cccs2)c2nc3ccccc3nc21 has a z-score of -0.0934. Fc1ccc2[nH]c3c(N4CCN(Cc5ccc6c(c5)OCO6)CC4)ncnc3c2c1 gave a z-score of -0.419. Compound CCCOP(=O)(OCCC)c1c([N+](=O)[O-])cc(C(F)(F)F)cc1[N+](=O)[O-] has a z-score of 0.203. For COc1ccc(-n2c(SCC(=O)N3CCN(c4ccccc4)CC3)nc3c(c2=O)SCC3)cc1, the z-score was -1.5. With COc1ccccc1NC(=O)Cn1cc(C#N)c2ccccc21 the z-score was -0.0322. O=C(Nc1ccc(N2CCCC2)c(S(=O)(=O)Nc2cccc(C(F)(F)F)c2)c1)c1cccs1 showed a z-score of -0.233. Compound O=C(N/N=C/c1cn(-c2ccccc2)nc1-c1cc2ccccc2o1)c1ccccc1Br has a z-score of 0.0996. For COc1ccc(-n2c(SCC(=O)Nc3nc(C)cs3)nnc2-c2ccoc2C)cc1, the z-score was -2.63. COc1ccccc1CN1CC(C(=O)N2CCN(c3ccc(F)cc3)CC2)CC1=O (stereo unspecified) gave a z-score of -0.0536. With C/C(=N/NS(=O)(=O)c1ccc(Cl)cc1)c1cccc(O)c1 the z-score was -0.136. Cc1ccc2nc(-c3ccc(NC(=O)COC(=O)c4ccc([N+](=O)[O-])o4)cc3)sc2c1 gave a z-score of -0.184. In the case of Cc1ccc(-c2cccc(NC(=O)C3C(C(=O)O)[C@@H]4C=C[C@H]3C4)c2)o1 (stereo partly specified), the z-score is reported as -0.227. COC(=O)c1ccccc1NC(=O)c1ccc(-c2ccccc2F)o1 showed a z-score of 0.12. O=C(c1csc2c1CCCC2)N1CCN(c2ncccn2)CC1 showed a z-score of -0.37. CCOCCCN(Cc1cc2cc(C)cc(C)c2[nH]c1=O)C(=O)N(CC)CC was tested, and the z-score was 0.102. In the case of CS(=O)(=O)c1nc2ccccc2n1Cc1ccccc1, the z-score is reported as -0.0282. With COc1cc(OC)c(NC(=O)CCNC(=O)Cn2ccc3ccccc3c2=O)cc1Cl the z-score was -0.293. With Cc1ccc(-c2csc(NC(=S)NC(=O)c3cccs3)n2)cc1 the z-score was -0.267. Cc1ccc(CNC(=O)Cn2cc(C(F)(F)F)ccc2=O)cc1 showed a z-score of -0.0483. CN(C(=O)Cc1ccccc1)n1cnnc1 gave a z-score of 0.161. COc1ccc(N2C(=O)CSC2c2cccc(OC)c2OC)cc1 (stereo unspecified) showed a z-score of -0.163. With COc1cc2c(cc1OC)CN(C(=O)c1cc(=O)c3ccccc3o1)CC2 the z-score was -0.159. Work on CC(=O)c1cccc(OCCN2C(=O)NC(C)(C)C2=O)c1 yielded a z-score of 0.0476. In the case of Cc1ccc2c(c1)c1c(n2C)C(C(N)=O)CCC1 (stereo unspecified), the z-score is reported as -0.132. Compound CCOC(=O)C1CCN(S(=O)(=O)c2cccc(-c3cn4cccnc4n3)c2)CC1 has a z-score of -0.132. CCCOc1ccccc1C1NC(=O)NC(C)=C1C(=O)OCc1ccccc1 (stereo unspecified) gave a z-score of 0.0768. For COc1ccccc1-n1c(-c2ccc(NS(C)(=O)=O)cc2)n[nH]c1=S, the z-score was -0.385. In the case of O=C(Nc1ccccc1Sc1ccccc1)c1ccc(F)cc1, the z-score is reported as -0.165. With CN1C(=O)CC(Sc2ccccc2C(=O)O)C1=O (stereo unspecified) the z-score was 0.0241. Cc1ccc(C)c(S(=O)(=O)NCc2ccc(C(=O)N3CCN(C)CC3)cc2)c1 gave a z-score of -0.152. With O=C(O)c1cccnc1NC1CCCC1 the z-score was 0.516. Compound O=C1Nc2ccccc2C12Nc1ccccc1-c1nc3ccccc3n12 (stereo unspecified) has a z-score of -0.273. With O=C(NCc1cccs1)Nc1cccc(Cl)c1 the z-score was 0.43. For COc1cc(C)nc(N(C)S(=O)(=O)c2ccccc2Cl)n1, the z-score was -0.0755. For COc1ccc(N=Cc2nc(-c3ccco3)oc2O)cc1, the z-score was -0.138. CCOC(=O)C(CCCOc1cccc(CC)c1)C(=O)OCC showed a z-score of 0.094. Compound O=C(c1cc2c(s1)-c1ccccc1OC2)N1CCN(c2ccccn2)CC1 has a z-score of -0.421. In the case of CC1CCCCN1S(=O)(=O)c1ccc(S(=O)(=O)N2CCN(c3ccc(F)cc3)CC2)cc1 (stereo unspecified), the z-score is reported as -0.955. C/C(=N\NC(=O)c1cccc(S(=O)(=O)Nc2ccccc2Cl)c1)c1ccco1 gave a z-score of -0.146. For N#CC1=C(N)OC2=C(C(=O)CCC2)C1Cc1ccccc1 (stereo unspecified), the z-score was -0.0816. With CC1CC(=O)NN=C1c1ccc(N(C)C)c([N+](=O)[O-])c1 (stereo unspecified) the z-score was -0.192. For CC(C)CC(OC(=O)c1cccs1)C(=O)NCC1CCCO1 (stereo unspecified), the z-score was -0.0478. Work on CCCOc1ccc(OCCCCNC(C)CC)cc1 (stereo unspecified) yielded a z-score of 0.85. Work on CCCCCOCC(O)CCC(=O)NN (stereo unspecified) yielded a z-score of -0.00733. Compound O=C(CCS(=O)(=O)Cc1ccccc1F)NCCCN1CCCCC1 has a z-score of 0.214. Work on Cc1occc1C(=O)Nc1cccc(C(=O)O)c1 yielded a z-score of -0.0368. Compound COc1cccc(C(=O)Cn2c(=O)n(CC3CCCO3)c(=O)c3ccccc32)c1 (stereo unspecified) has a z-score of -0.719. CCCCNC(=O)c1ccc2c(OCC)n(CCCC)nc2c1 was tested, and the z-score was -0.483. Compound CCc1cc2c(=O)[nH]c(Cc3ccccc3)nc2s1 has a z-score of -0.371. CCCN(CCC)c1nc(C)cc(C(C#N)c2nc3ccccc3o2)n1 (stereo unspecified) was tested, and the z-score was 1.32. CCC(=O)Nc1cccc(-c2nnc(SCC(=O)c3ccccc3)n2C)c1 showed a z-score of -0.951. Work on c1csc(CN2CCOCC2)c1 yielded a z-score of 0.267. With CC(C)(Oc1ccc(Cl)cc1)C(=O)NCc1ccncc1 the z-score was 0.181. In the case of COc1ccccc1/C=N/NC(=Nc1ccc(C)cc1)c1nc2ccccc2s1, the z-score is reported as -0.141. With Cc1c(C(=O)N(C)Cc2ccccc2)oc2ccc(S(=O)(=O)N3CCCC3)cc12 the z-score was -2.22. Work on CCc1ccc(N2C(=O)/C(=C/c3cccs3)N(CC(=O)OC)C2=S)cc1 yielded a z-score of -0.102. Cc1nc2nc(COc3ccccc3)[nH]n2c(=O)c1Cc1ccccc1 showed a z-score of -1.83. Compound Brc1ccc(C2=CC(c3ccco3)n3ncnc3N2)cc1 (stereo unspecified) has a z-score of -2.57. Work on O=C(CSc1nnc(-c2cccnc2)n1C1CCCCC1)NC1CCCC1 yielded a z-score of -0.0559. Work on O=C(CN1C(=O)CSc2ccccc21)Nc1ccc2c(c1)OCCO2 yielded a z-score of -0.322.
